The molecules below were run against PRMT5/MEP50 Complex (Homo sapiens (Human), UniProt O14744) (assay: PRMT5 inhibition based on TR-FRET assay). Conditions: 32 nM PRMT5:MEP50, 50 nM Histone-H4 peptide, 1 μM SAM.
Format: biochemical
Text: PRMT5 Inhibition Based on TR-FRET Assay:
Protein arginine methyltransferase 5 (PRMT5) is a type II arginine methyltransferase that catalyze mono- and symmetric demethylation on arginine residues of histone or non-histone proteins in presence of S-adenosylmethionine (AdoMet or SAM) a cofactor responsible for donating the methyl group. PRMT5 is reported to be overexpressed in several human cancers. To identify compounds that inhibit the PRMT5 and decrease its activity, a TR-FRET based assay has been established. Time-resolved fluorescence resonance energy transfer (TR-FRET) HTS assays are homogeneous proximity assays where the interaction of two dye-labeled binding partners is detected by the energy transfer between a donor and an acceptor dye and the subsequent light emission by the acceptor dye. PRMT5 catalyzes Histone H4 peptide which is biotin tagged to the Lysine amino acid at carboxyl end, in presence of S-adenosyl-1-methionine (SAM) to methylate the peptide. The antibody specific to mono methylated H4 peptide (H4R3) with Ig conjugate binds to the methylated peptide, indirectly binding to the Europium lanthanide. SureLight Allophycocyanin-Streptavidin binds to the biotin tag of the peptide, therefore accepting the energy transferred from the Europium lanthanide. This energy transfer between Europium to SureLight Allophycocyanin is a direct measure of the activity/inhibition of the PRMT5 enzyme.
Assay buffer: 20 mM BICINE (pH 7.6), 25 mM NaCl, 2 mM DTT, 0.01% Tween-20 and 0.01% BSA.
The compound dilutions were prepared as 7.5% DMSO stock solutions in assay buffer. To 2 μL (7.5×) of test compound, 5 μL of PRMT5 enzyme prepared in assay buffer (Final concentration of 32 nM in 15 μL reaction volume) was added and allowed for 30 minutes pre-incubation time in a white polystyrene 384-well plate at room temperature. […] The plates were then read on Victor-3 with Excitation at 340 nm and Emissions collected at 615 and 665 nm in TR-FRET protocol. […]

Sequence of UniProt O14744 (O14744 whole entry): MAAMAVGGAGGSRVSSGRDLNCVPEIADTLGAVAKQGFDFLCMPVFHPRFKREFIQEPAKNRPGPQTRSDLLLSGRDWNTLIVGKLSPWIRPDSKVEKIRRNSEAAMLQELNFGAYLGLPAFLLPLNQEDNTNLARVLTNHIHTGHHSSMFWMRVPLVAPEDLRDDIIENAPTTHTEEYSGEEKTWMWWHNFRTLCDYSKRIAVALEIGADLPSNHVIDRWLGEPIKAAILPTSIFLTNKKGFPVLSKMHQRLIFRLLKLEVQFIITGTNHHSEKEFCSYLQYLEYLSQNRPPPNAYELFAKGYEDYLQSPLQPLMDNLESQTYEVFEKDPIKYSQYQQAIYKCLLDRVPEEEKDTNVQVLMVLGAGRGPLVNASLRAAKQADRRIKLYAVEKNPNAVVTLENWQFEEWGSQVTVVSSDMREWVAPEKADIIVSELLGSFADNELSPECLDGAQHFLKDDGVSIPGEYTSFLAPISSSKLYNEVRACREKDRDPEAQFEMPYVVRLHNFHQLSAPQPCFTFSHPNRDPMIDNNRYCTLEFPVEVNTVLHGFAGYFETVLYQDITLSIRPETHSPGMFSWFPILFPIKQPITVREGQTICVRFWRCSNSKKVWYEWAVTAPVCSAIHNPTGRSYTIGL
Sequence of UniProt O14744 (Q9BQA1 whole entry partner): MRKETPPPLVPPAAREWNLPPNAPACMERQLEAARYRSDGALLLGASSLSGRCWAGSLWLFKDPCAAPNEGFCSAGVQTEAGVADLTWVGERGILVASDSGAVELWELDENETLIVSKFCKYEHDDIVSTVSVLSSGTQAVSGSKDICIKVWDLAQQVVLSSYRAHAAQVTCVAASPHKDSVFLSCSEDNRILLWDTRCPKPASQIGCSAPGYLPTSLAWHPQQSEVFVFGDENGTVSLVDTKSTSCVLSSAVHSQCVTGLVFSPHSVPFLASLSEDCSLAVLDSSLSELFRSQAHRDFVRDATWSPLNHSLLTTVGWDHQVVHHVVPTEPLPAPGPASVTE

| SMILES | IC50 |
| --- | --- |
| N#Cc1ccc(CN2CCN(CC(O)CN3CCc4ccccc4C3)C2=O)cc1 (single isomer, unassigned) [Example 18a, 4-((3-(3-(3,4-dihydroisoquinolin-2(1H)-yl)-2-hydroxypropyl)-2-oxoimidazolidin-1-yl)methyl)benzonitrile] | 0.04 µM |
| Cc1ccccc1CN1CCN(CC(O)CN2CCc3ccccc3C2)C1=O (stereo not drawn) [Example 16, 1-(3-(3,4-Dihydroisoquinolin-2(1H)-yl)-2-hydroxypropyl)-3-(2-methylbenzyl)imidazolidin-2-one] | 0.25 µM |
| N#Cc1ccc(CN2CCN(CC(O)CN3CCc4ccccc4C3)C2=O)cc1 (stereo not drawn) [Example 18, 4-((3-(3-(3,4-dihydroisoquinolin-2(1H)-yl)-2-hydroxypropyl)-2-oxoimidazolidin-1-yl)methyl)benzonitrile] | 0.07 µM |

From patent US11365205B2 (Aurigene Discovery Technologies Limited, priority 2018, dated 2022)
